Measurements reported in article PMC5836133.
The other results are listed elsewhere or left out. At the low end of the ranking the order means little.

tested on: T1, GST-NbGlk1(82-244); assay: protein-binding microarray; conditions: NbGlk1 is a Golden2-like transcription factor of Nicotiana benthamiana; high values mean tight binding; most listed sequences are background and not binding sites; double strand, one strand shown;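 also: rank-based score ranging −0.5 to +0.5 with E above 0.45 taken as significant binding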
T1 sequence: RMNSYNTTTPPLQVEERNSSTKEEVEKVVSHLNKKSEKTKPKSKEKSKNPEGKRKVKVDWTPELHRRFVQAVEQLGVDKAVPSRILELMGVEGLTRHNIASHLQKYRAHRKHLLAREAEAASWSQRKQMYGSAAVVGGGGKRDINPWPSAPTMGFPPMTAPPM

Row | Sequence | binding signal [E-score]
1 | ATACCTAC | -0.0143
2 | CAAACTGC | -0.213
3 | AGAGATGC | -0.0595
4 | CACTCCTC | -0.189
5 | AGGATAGA | -0.0379
6 | ACCGGGGG | -0.28
7 | ATCTAAAC | 0.238
8 | AGGTCTCG | -0.307
9 | ATGCATAG | 0.043
10 | ATCATACA | 0.0613
11 | ATGTCATC | -0.0391
12 | ACGCGACG | -0.0867
13 | AGCTTAAC | -0.129
14 | ATTCGAGC | 0.0972
15 | AGACATAC | -0.0531
16 | ATCGAAAC | 0.185
17 | ACCCCTCG | -0.103
18 | CAGCGGCG | -0.253
19 | CACACGCA | -0.0607
20 | AGTTATGC | 0.0998
21 | ACGGCTTA | 0.00347
22 | AGCTTCAT | -0.164
23 | AGAGCTGG | -0.165
24 | AATATGCC | -0.0147
25 | AGGCCAGG | -0.262

Row | Sequence | binding signal [E-score]
26 | AAAGCGTC | -0.0151
27 | AGGTTGAA | -0.0627
28 | ACCGCATG | -0.234
29 | AATTTGTG | 0.0667
30 | AAATCTAC | 0.441
31 | ATAATGAG | 0.0965
32 | AAAAGGTG | -0.137
33 | ACTTGACG | -0.0757
34 | ATACGCAT | 0.204
35 | AGCGAAAG | -0.0853
36 | AAGCATAA | -0.00533
37 | AACTGGGG | -0.121
38 | ATGTGTTA | -0.00268
39 | ATCTGTCG | 0.268
40 | CAAGGGTA | -0.074
41 | CAGCAAGA | 0.0537
42 | AGACTCTA | -0.144
43 | ATAACCAG | -0.134
44 | ACTGAGGC | -0.176
45 | AGAAGATC | 0.383
46 | AGCTCTTA | -0.073
47 | CAAAGTGC | -0.195
48 | ACCATGTG | -0.152
49 | ATTGAATG | 0.00382
50 | AAATCCCC | 0.368

Row | Sequence | binding signal [E-score]
51 | ACCCGGAA | -0.0665
52 | AGAGACTG | -0.0886
53 | ACTGTAAT | 0.312
54 | AGAGCGAA | -0.0692
55 | ATTTTTAG | 0.235
56 | ATGAGTAA | 0.163
57 | ATGTGCAC | -0.0286
58 | AAACTGCG | -0.088
59 | ACCTCAAC | -0.132
60 | ATTATCTA | 0.201
61 | AGTCAGCA | -0.152
62 | ATGCGCAA | 0.173
63 | AAGACGAG | -0.0393
64 | AGACTGAA | 0.0441
65 | AACGCAAG | -0.0251
66 | ATTCACAG | 0.167
67 | AGACGCTG | -0.0868
68 | ATCGAACC | 0.00528
69 | ACAATTAG | 0.131
70 | ATTTGCGG | 0.195
71 | AGTTAAAT | 0.108
72 | AGTAACCC | -0.117
73 | ATGACAGA | -0.0801
74 | ATATTAAA | 0.17
75 | CAATGGCA | -0.144

Row | Sequence | binding signal [E-score]
76 | CACTCACA | -0.0926
77 | ACCTAGTG | -0.182
78 | AAACTTAG | -0.0923
79 | AGGGTCGG | -0.188
80 | ATATAGTG | 0.0491
81 | AGACTAGC | -0.174
82 | ATTGTAGC | -0.0112
83 | CACGAAGG | -0.151
84 | AAGTCTCG | -0.178
85 | CACAATCG | 0.268
86 | CAAATGGC | -0.223
87 | ACTTCTAC | -0.0626
88 | AAGATGAT | 0.118
89 | AACGGCGC | -0.0947
90 | ACGCACGT | -0.013
91 | ACAATGTG | -0.0911
92 | AGTTTTCG | -0.0763
93 | AGTGGTGC | -0.199
94 | CAATTGCA | 0.0611
95 | ACTATGCC | -0.0104
96 | AATAGAAC | -0.0719
97 | ATGGGGGC | -0.188
98 | ACGGTAGC | -0.139
99 | ACACATTC | 0.113
100 | ATCAGCAC | 0.058

Row | Sequence | binding signal [E-score]
101 | AACACTGC | -0.0212
102 | ACTTGTTG | -0.0955
103 | ATAGAGAT | 0.276
104 | AGCGTAAA | 0.112
105 | AAGGCCTT | -0.0125
106 | ACGAAGCT | -0.164
107 | ACTGAAAA | 0.173
108 | CAATACCG | -0.121
109 | CACGAAAC | -0.0202
110 | ACGTTGGC | -0.254
111 | CAAACAGC | -0.0286
112 | AATCAAGA | 0.308
113 | AAATAGTG | -0.0665
114 | ACTGATGG | -0.0842
115 | ATTTGGGC | 0.0874
116 | AGGCATCC | -0.184
117 | AGTCCTTC | -0.204
118 | AACAGCCC | -0.26
119 | AGGGAGCG | -0.115
120 | ACTGAAGA | 0.00037
121 | CAAAAACA | -0.0472
122 | ATCCGTAA | 0.268
123 | ATCATAGC | 0.176
124 | ATAACGGA | 0.133
125 | AAAGATGG | 0.0109

Row | Sequence | binding signal [E-score]
126 | ATGTGGAC | -0.272
127 | ACGGGCCG | -0.291
128 | AAGGGAAT | 0.259
129 | ACCTGATA | 0.0967
130 | ACCCTGTA | -0.162
131 | AACCCGAC | -0.234
132 | ACTATAGC | -0.124
133 | AGTGTCGA | -0.107
134 | AACACCCT | -0.207
135 | ATCAGTGG | 0.134
136 | ACAAAATG | 0.00095
137 | AGATCCCG | 0.32
138 | CACCGTGG | -0.236
139 | CAAATTCG | 0.213
140 | ACTAAAAA | 0.0978
141 | AATATGGG | 0.144
142 | ACCCATAC | -0.0861
143 | ACACTATG | -0.00488
144 | AAGGAACA | 0.0128
145 | ATAAGATG | 0.0394
146 | CAATTTGG | 0.00133
147 | ATGCCGCG | -0.0364
148 | CAGAAGAA | 0.0167
149 | CACGATCA | 0.0745
150 | AGGGATGG | -0.314

Row | Sequence | binding signal [E-score]
151 | CAGCAAGC | -0.214
152 | ACATCCCG | -0.00275
153 | ACTTAAGC | -0.0934
154 | ACTCAGCA | -0.159
155 | AATCAGAC | 0.166
156 | ACATACCA | -0.125
157 | AGCAAACG | -0.11
158 | AGCCTTAA | -0.225
159 | ATAACATC | 0.0762
160 | ACACTGCC | -0.236
161 | AGGGCCAG | -0.121
162 | ACACTAGA | 0.111
163 | CAAGAGTG | -0.138
164 | ATAGATGG | -0.0288
165 | CACAGGAC | -0.187
166 | AGAGCCAA | -0.275
167 | ACTGGAGC | -0.17
168 | ACGCCTCG | -0.168
169 | ATGGCGGC | -0.148
170 | ATCCCTAG | 0.0811
171 | ACAGGGGA | -0.0647
172 | AGACAACG | -0.231
